Data: PubChem BioAssay AID504332 (National Center for Advancing Translational Sciences (NCATS), 2011)
Hit rate of the full screen: of about 350,000 compounds, about 31,000 (8.9%) were called active. The shares of active, inactive and inconclusive entries below differ from those in the screen. Calls come from the whole dose curve; as a rule, active = well fitted inhibition curve with a large enough effect; inconclusive = small, poorly fitted or top-dose-only effect; inactive = no such curve, though single readings can be large or run the other way. Where the call is inconclusive, the potency comes from a doubtful curve fit.

target: Histone-lysine N-methyltransferase EHMT2 (Homo sapiens) (UniProt Q96KQ7); assay: qHTS Assay for Inhibitors of Histone Lysine Methyltransferase G9a; settings: G9a H3K9 monomethylation, AlphaScreen, 2 h; activity, negative = inhibition: at 59 µM (top of the series) unless noted; note: nearly all actives have a fitted effect of over 75% in size
Chain of UniProt Q96KQ7 (Q96KQ7 whole entry, looked up): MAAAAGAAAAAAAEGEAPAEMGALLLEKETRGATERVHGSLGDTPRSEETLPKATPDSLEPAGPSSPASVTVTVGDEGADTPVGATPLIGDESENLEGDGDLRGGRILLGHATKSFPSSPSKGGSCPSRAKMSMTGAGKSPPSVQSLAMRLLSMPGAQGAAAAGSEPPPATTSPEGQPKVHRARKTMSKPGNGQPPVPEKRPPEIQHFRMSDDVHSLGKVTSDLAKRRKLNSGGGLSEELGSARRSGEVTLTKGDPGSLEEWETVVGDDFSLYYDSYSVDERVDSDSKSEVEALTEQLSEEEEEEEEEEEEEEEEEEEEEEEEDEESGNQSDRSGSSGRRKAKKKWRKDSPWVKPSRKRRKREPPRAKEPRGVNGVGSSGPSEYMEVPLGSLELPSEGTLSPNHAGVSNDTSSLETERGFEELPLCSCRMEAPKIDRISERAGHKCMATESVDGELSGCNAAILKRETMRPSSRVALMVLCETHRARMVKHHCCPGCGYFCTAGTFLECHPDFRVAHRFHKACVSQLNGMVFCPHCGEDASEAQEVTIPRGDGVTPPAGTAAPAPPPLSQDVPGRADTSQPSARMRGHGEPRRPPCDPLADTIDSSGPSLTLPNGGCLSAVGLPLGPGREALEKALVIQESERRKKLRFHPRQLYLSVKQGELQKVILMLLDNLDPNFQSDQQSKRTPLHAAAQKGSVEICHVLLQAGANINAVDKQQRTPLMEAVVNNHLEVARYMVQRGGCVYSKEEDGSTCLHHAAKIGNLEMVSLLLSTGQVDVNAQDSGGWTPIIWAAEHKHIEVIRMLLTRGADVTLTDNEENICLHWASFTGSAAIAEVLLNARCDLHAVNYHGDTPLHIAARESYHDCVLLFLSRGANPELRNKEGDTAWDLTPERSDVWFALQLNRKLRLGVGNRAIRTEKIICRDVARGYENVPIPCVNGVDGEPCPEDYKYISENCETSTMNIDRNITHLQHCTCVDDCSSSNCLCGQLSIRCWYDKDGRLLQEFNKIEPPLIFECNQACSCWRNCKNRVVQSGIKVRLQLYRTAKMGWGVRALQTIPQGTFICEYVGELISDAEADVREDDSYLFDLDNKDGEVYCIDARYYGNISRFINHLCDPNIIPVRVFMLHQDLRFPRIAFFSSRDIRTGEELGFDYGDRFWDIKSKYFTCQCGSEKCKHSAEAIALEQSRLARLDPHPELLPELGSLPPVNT
How it was run: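 Compounds were preincubated with 20 nM G9a for 15 min, after which biotinylated H3K9 peptide (500 nM) and SAM (20 uM) started a 2 h room-temperature reaction. Monomethylated product was quantified by antibody-based AlphaScreen chemiluminescence.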
% is set by controls: 0 for no effect and ±100 for the full control effect; potency is the fitted concentration of half-maximal effect; tags give direction and shape of the fitted curve.

SMILES	Potency	activity, negative = inhibition
O=C(/C=N/O)NCC1CCNCC1	inconclusive: 56.2 µM [inhibitor, partial curve, poor fit]	
O=[N+]([O-])c1ccccc1/C=C/C=N/n1c(-c2ccccc2F)n[nH]c1=S	active: 1.78 µM	
COc1ccc(C(=O)Oc2ccc(-c3nnco3)cc2)cc1S(=O)(=O)N1CCOCC1	active: 50.1 µM	
OCC1(Cc2ccc(Cl)cc2)CCN(Cc2ccc3nsnc3c2)CC1	inconclusive: 89.1 µM [inhibitor, partial curve, poor fit]	
NC(=O)CC(NC(=O)c1ccc(Br)cc1)c1ccc(N2CCN(c3ccccc3)CC2)c([N+](=O)[O-])c1 (stereo not drawn)	inactive	
OC1CCCN(c2ncnc3c2nnn3Cc2c(F)cccc2Cl)C1 (stereo not drawn)	inconclusive: 89.1 µM [inhibitor, partial curve, poor fit]	
CC(C)(C)NC(=O)CSc1nnc(CN2CCCCCC2=O)n1-c1ccccn1	inconclusive: 89.1 µM [inhibitor, single point]	
CC1=NN(c2ccccc2)C(=O)C1/C=C1/NC(=S)NC1=O (stereo not drawn)	inconclusive: 1.41 µM [inhibitor, full curve, poor fit]	
Cc1ccc(S(=O)(=O)Cc2ccc([N+](=O)[O-])cc2)cc1	inconclusive: 89.1 µM [inhibitor, single point]	
O=C(CCN1C(=O)C2CC=C(Cl)CC2C1=O)NCc1ccccc1 (stereo not drawn)	active: 17.8 µM	
CCOC(=O)CSc1nc2ccc(NC(=O)CSc3nnnn3Cc3ccccc3)cc2s1	inconclusive: 25.1 µM [inhibitor, single point]	
COc1ccc(NC(=O)CN(C)S(=O)(=O)c2ccc3c(c2)CC(C)N3C(C)=O)cc1OC (stereo not drawn)		inactive: 5.65% [at 0.501 µM]
COc1ccc(NC(=S)Nc2ccc(OC(F)F)cc2)cn1	inconclusive: 70.8 µM [inhibitor, partial curve, poor fit]	
C[C@]12CCC(=O)C[C@@H]1CC[C@@H]1[C@@H]2CC[C@]2(C)[C@@H](C(=O)COC(=O)CCC(=O)O)CC[C@@H]12	inactive	
NCCCNC(=O)c1cc2ccccc2[nH]1	inconclusive: 89.1 µM [inhibitor, single point]	
Cc1ccc(C(=O)N2CC(=O)Nc3ccc(F)cc3C2c2ccc(F)cc2)cc1[N+](=O)[O-] (stereo not drawn)	inconclusive: 2.82 µM [inhibitor, single point]	
Cc1ccc(Nc2nc(N)c(C#N)c(CC#N)c2C#N)cc1	inactive	
COc1ccccc1/C=C1\SC(=O)N(CCC(=O)NNC(=O)c2ccccc2Cl)C1=O	inconclusive: 28.2 µM [inhibitor, single point]	
